Reference: the supplement of paper PMC11417369
± gives the standard deviation of the averaged measurements. The list shows a part of the results.

test system: PfAP2-LT AP2 domain (GST-tagged); experiment: gcPBM binding intensity (ln(normalized median fluorescence intensity)); higher = stronger DNA binding
Outline: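 Each value is the highest Masliner-normalised natural-log median intensity across replicate spots of either orientation of a probe. The probes were primer-extended double-stranded 36-bp intergenic genomic sequences on an Agilent 4 × 180k array, alongside negative controls, exposed for 1 h to GST-tagged P. falciparum DNA-binding domains expressed in E. coli. Bound protein was picked up with Alexa488 anti-GST antibody and scanned at 488 nm.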

| Sequence | gcPBM binding intensity (ln) |
| --- | --- |
| TTTTTTTTGTGTTCAAGTACAAAATTTTAAAGGTCA [XGTACX_site4011] | 8.28 ± 0.42 |
| TATATATATATATAAGCACACAAACAAAAAAAATTA [CACACA_site9293] | 8.97 ± 0.35 |
| GGTTATTTCACAGAATGTACTTATTATATATAAAAT [XGTACX_site8886] | 8.69 ± 0.38 |
| AAGATAAATTATTATAAATCAATTGTGCCAACAATA [CACACA_negctrl_site144] | 8.49 ± 0.45 |
| AATATAAATAAAAACACACACACACCGATATATATA [CACACA_site5283] | 10.2 ± 0.11 |
| AAGATTAGGTTAATTAGTACTTATTATATTGTAATG [XGTACX_site3653] | 8.57 ± 0.49 |
| GATCCATTATTGATCCGTACTTATTCATGTTATATA [XGTACX_site5946] | 8.91 ± 0.51 |
| TATATATATATATGTATGCACTTTAATTTTATAAGG | 9.17 ± 0.35 |
| TATATATGTATATATACACACAACGGTTATAAATAT [CACACA_site1128] | 9.16 ± 0.29 |
| TGTTATAAGATTTATGTACACACATATACACCCCTC [CACACA_site8141] | 9.3 ± 0.33 |
| AATGTAGAAATGGGTGCACACACATATATAATATAT [CACACA_site8799] | 9.57 ± 0.48 |
| AATGTGTAGACACGCACACACAAAAAAATATATATA [CACACA_site5595] | 9.8 ± 0.55 |
| GTTTTATTTTCAATGTGTACTTATTATTTGATATAC [XGTACX_site6402] | 9.04 ± 0.47 |
| CATTTGCACCCGCACACACACATAAAAAGAAAAATA [CACACA_site4350] | 9.66 ± 0.53 |
| TAATTTTTTTTAATAACACACATATAAATATAAATA [CACACA_site6521] | 8.31 ± 0.41 |
| AACATTGATAAATATAAACACACGAAAACAGACATA [CACACA_site490] | 9.31 ± 0.44 |
| GTACCTATTTCATACACACACACACCCAAACAAACA [CACACA_site976] | 9.96 ± 0.18 |
| CATATTATTATTTTGGTGCATACTTATATATATTTT | 8.85 ± 0.4 |
| GAAACAATTTGATATTGTACATAAATAAATAAAAAC [XGTACX_site8869] | 8.89 ± 0.54 |
| CTTGTACCTAGAAATACACACAATTCTATAACTTAT [CACACA_site7355] | 8.87 ± 0.42 |
| TCATTTTTTTGTTTGGTGCGACTTGAAAATTTGATT | 8.85 ± 0.37 |
| TTGTACATCTTTTGCACACGTAATGTTATTATAATA [CACACA_site1258] | 9.07 ± 0.31 |

| Sequence | gcPBM binding intensity (ln) |
| --- | --- |
| TTATAACTTTTGAGCACACACAAGCATATAAATATA [CACACA_site6933] | 8.96 ± 0.47 |
| AAATACTGTAAAAAAGCATGCCACTAATAATAATTA [TGCATGCA_site759] | 9.02 ± 0.5 |
| AGAGAATAAATATAAAGTACATATATAAATATATAT [XGTACX_site5055] | 8.79 ± 0.49 |
| ACATATACAAAACACACACACAACGTTTTAATAAAT [CACACA_site1979] | 9.85 ± 0.35 |
| ATGTTATAAATCTTAATATATATATGCAAAAGAGAA [XGTACX_negctrl_site521] | 8.71 ± 0.4 |
| GTATATAAAAATTCATGTACATATTATTATTTTTAA [XGTACX_site658] | 8.5 ± 0.45 |
| ACATATATATAATATATATATCATCATATTTTCTTA [CACACA_negctrl_site853] | 8.64 ± 0.47 |
| TGTGTGTGTATATGTGTGCACATATAAAATAGAAGA [GTGCAC_site9714] | 9.95 ± 0.28 |
| ATATGTGTTATTTATACATGCAGAAGAATATCTATT [TGCATGCA_site828] | 8.84 ± 0.38 |
| CATACATTTAAAAAGTGTACGTATATGAAAAAAGGA [XGTACX_site6512] | 8.82 ± 0.39 |
| ACCTTTGTAGTTGGTCCACACACATATATGGAAGAA [CACACA_site8351] | 9.18 ± 0.38 |
| CTCAATATTATTACTACACACAAATTAAAATTTTCC [CACACA_site4203] | 8.69 ± 0.45 |
| AATAATCATGATCAAAGTACGTATGATTAAAAAAAA [XGTACX_site4916] | 8.96 ± 0.5 |
| TATATGTAAATGGACACACACATATATATATATATA [CACACA_site3659] | 10 ± 0.13 |
| TATGACCTTAGTAATTGTACACAAACATATTAATAT [XGTACX_site3340] | 8.79 ± 0.4 |
| GAGTATATGATATATATATATATATAAAAAAAAAAA [GTGCAC_negctrl_site99] | 9.4 ± 0.48 |
| TTGAGTTGTATAAAAAGTACAAGGTTTTAACTAAAT [XGTACX_site1447] | 8.79 ± 0.45 |
| TTATAATATTCATAAGGTACAGTTTATATATGTTAT [XGTACX_site8442] | 8.68 ± 0.4 |
| ATATATATTATATGCACACTAATAAGACTATTTAAA [CACACA_site3554] | 8.75 ± 0.37 |
| GTATATGTACTATACGCACACACACCCACATATATA [CACACA_site9062] | 9.85 ± 0.24 |
| CGTATATCACCAACTAGTACATATAAATAAATAAAT [XGTACX_site8837] | 8.89 ± 0.47 |
| ATATAGATTCGACACACACACAAAAAAAAAAAAAAA [CACACA_site7677] | 9.38 ± 0.49 |

| Sequence | gcPBM binding intensity (ln) |
| --- | --- |
| GTACCTATTTCATACACACACACACGCAAACAAACA [CACACA_site6590] | 9.77 ± 0.25 |
| TGGTATATTATTTTTTGTACACATAAATGAAACATT [XGTACX_site5345] | 8.62 ± 0.47 |
| ATATATATATATATATGTACATATTATTATTTTGAT [XGTACX_site4752] | 9.575 ± 0.0071 |
| ATATATATAATAAACACACACATATACATAGATGTA [CACACA_site5841] | 9.29 ± 0.21 |
| ATATATATGTATACATGTACATATTTTATTATGTGC [XGTACX_site7207] | 9.02 ± 0.4 |
| GTGATTAATATATACACACATACATATATATATATA [CACACA_site2817] | 9.6 ± 0.028 |
| TCTTTTAACACATGTGATATTATTTAATAACAATAA [CACACA_negctrl_site339] | 8.45 ± 0.4 |
| GGTATACACAAGTATACACACATATAAATATAAATA [CACACA_site7511] | 9.16 ± 0.49 |
| CTTTTATAATTCATATGTACTTATTTTTAACATAGG [XGTACX_site7808] | 8.64 ± 0.49 |
| AAGAATAACTTTTATACATGCAGCATAATATATTGT [TGCATGCA_site605] | 8.81 ± 0.38 |
| TGTACATATATATATATATATGTTACTGAAATAAAA [CACACA_negctrl_site1658] | 8.8 ± 0.35 |
| AATAACCACAGACACACACACATATAAATATAAATA [CACACA_site7631] | 10 ± 0.46 |
| ACTGTAATATTGAAAGTGCATTAAAGTGTATATTAT [GTGCAC_site9970] | 8.94 ± 0.45 |
| TTATTTTATTTAGGGTGTACCCAATTTTTCCATATG [XGTACX_site4957] | 8.68 ± 0.61 |
| TCCTATAATTTTTTAATCAAAATATTTTATCCTTTG [CACACA_negctrl_site793] | 8.43 ± 0.59 |
| ATTTATATTTATAAATGTACACATATATATTTCATT [XGTACX_site2723] | 8.84 ± 0.35 |
| AAAAATTTTTTACATCGTACAGATATATATAATAAA [XGTACX_site3331] | 8.38 ± 0.45 |
| TAATTTTTTTAAAAGCGTACATTTAAAAAAAAATAT [XGTACX_site2736] | 8.21 ± 0.42 |
| TTACAGATATTTATCTGTACATATATTTAAAAATAT [XGTACX_site7431] | 8.49 ± 0.45 |
| AAAAGTAAAAAAAAAAAAAGTAAAAAAAAAAAAAAA [CACACA_negctrl_site389] | 8.32 ± 0.54 |
| TCTTATCATTTTAAATCACACACATATATATATATA [CACACA_site8925] | 9.23 ± 0.2 |
| TTTTTAAATTCTTTAATATGTTTTATATATCAAAAT [CACACA_negctrl_site75] | 8.21 ± 0.52 |

| Sequence | gcPBM binding intensity (ln) |
| --- | --- |
| TTTATATATATAAATATGTAGATAACAATATTCTGA [TGCATGCA_negctrl_site554] | 8.3 ± 0.41 |
| ATACATAAATTTTGTACACACAAAAAAAAAAAAGCT [CACACA_site1351] | 9.15 ± 0.43 |
| TTATTCCTTTTCCTTTTTTTTTTTTAACCAAAAAAA [CACACA_negctrl_site309] | 8.22 ± 0.47 |
| AAAATATACATATATGCATGCATATAAATAAAAAAA [TGCATGCA_site812] | 9.05 ± 0.33 |
| TATATATATTTATGCACACAAAATATATTATAGAAT [CACACA_site3740] | 8.89 ± 0.28 |
| AATGTTTATTTTGTTTGTACATAAAATGAATAAAAT [XGTACX_site1456] | 8.46 ± 0.48 |
| GTTATATATTTTTATGCATGCATTTTTAAATATATA [TGCATGCA_site175] | 9.01 ± 0.3 |
| GTTTTTTTGTTTTAAAGTACTTAAAAAAAAAATATA [XGTACX_site6998] | 8.2 ± 0.33 |
| GATAAAACGTTATGCACACGTACGTGAGTATTTATA [CACACA_site1570] | 9.18 ± 0.38 |
| AATGATAAATAAAAAGCATGCAACAAATAAAAATAA [TGCATGCA_site453] | 9.23 ± 0.56 |
| AACAAAACTTTGGATACATGCAAAATTTTTAAATGA [TGCATGCA_site249] | 8.65 ± 0.5 |
| TTACAAAATAAGAGGCACAAACACAAAAAAAAATAA [CACACA_negctrl_site574] | 8.83 ± 0.45 |
| AAAAAAAAAAGACACACACACAAAAAAAGATATATA [CACACA_site6645] | 9.9 ± 0.38 |
| TAGAATAAGATAGATATACACACCATTATAAATATA [CACACA_site2500] | 8.98 ± 0.52 |
| TGTAAAAAATTTAACACACACATATATATATATATA [CACACA_site2585] | 9.81 ± 0.2 |
| ATTACAATATATACGTGTACATATTACCACCGCTAC [XGTACX_site2308] | 9.09 ± 0.42 |
| ATAAAAATATTACGCACACACAAACTTATTCATTAT [CACACA_site1969] | 9.49 ± 0.28 |
| TTGTTCAAACAAAAAATAAAATAATTGAAAATAAAA [CACACA_negctrl_site812] | 8.46 ± 0.59 |
| GTAACTTTATTATACTGTACTATTATATAAGCACAC [XGTACX_site2859] | 9.09 ± 0.3 |
| AGTTGTTACGAACATACACACGAACATAGACACGGA [CACACA_site8102] | 9.24 ± 0.39 |
| AAAAAAAAATATATAAACACACATATTTATATACAC [GTGCAC_negctrl_site545] | 8.94 ± 0.38 |
| TTATTTAAATAATATGTACACACATTTAAAAAATTA [CACACA_site8912] | 8.48 ± 0.46 |
